# Results: paper PMC4336329 (PLoS ONE, 2015)
# Among all 310,000 compounds or so, about 2,200 (0.71%) showed an effect of 50% or more. The effect is printed as a negative number. The list shows a part of the results.
# Biological target: human ether-à-go-go-related gene (hERG) potassium channel (human, UniProt Q12809)
# Assay: primary screen, population patch clamp on CHO cells stably expressing hERG
# Chain of human ether-à-go-go-related gene (hERG) potassium channel (Q12809 whole entry, looked up): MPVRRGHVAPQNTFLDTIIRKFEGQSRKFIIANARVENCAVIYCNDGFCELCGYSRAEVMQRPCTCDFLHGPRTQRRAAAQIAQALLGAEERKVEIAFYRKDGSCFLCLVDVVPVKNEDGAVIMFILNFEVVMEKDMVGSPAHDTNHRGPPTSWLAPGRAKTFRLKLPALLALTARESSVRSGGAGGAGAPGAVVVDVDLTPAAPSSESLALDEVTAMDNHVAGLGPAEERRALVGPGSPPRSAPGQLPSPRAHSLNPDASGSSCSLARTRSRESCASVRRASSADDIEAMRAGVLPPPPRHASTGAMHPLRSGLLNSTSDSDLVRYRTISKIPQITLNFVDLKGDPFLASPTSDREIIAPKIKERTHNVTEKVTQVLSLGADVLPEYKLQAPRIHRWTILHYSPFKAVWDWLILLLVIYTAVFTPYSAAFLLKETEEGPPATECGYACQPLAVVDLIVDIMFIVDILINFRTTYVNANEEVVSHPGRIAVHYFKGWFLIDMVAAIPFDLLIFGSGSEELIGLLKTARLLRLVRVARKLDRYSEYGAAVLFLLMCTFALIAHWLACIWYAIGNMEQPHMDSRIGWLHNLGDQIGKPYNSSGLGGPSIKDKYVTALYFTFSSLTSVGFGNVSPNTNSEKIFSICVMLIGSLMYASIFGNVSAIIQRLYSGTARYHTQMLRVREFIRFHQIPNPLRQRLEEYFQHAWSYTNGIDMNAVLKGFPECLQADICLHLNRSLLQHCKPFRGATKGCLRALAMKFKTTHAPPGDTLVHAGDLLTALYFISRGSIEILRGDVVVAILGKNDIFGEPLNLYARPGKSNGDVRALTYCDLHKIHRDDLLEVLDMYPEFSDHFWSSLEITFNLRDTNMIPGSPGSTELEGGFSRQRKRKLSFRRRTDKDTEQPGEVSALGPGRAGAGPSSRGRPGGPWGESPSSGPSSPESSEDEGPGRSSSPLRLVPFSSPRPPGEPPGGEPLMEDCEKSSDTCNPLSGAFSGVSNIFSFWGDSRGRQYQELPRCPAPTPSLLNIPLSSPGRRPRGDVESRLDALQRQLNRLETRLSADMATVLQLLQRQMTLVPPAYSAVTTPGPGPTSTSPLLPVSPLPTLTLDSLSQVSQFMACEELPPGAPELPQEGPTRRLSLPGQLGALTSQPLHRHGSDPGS
row,Structure (SMILES),"hERG current change (%, negative = inhibition) at 1uM [%]"
1,COc1ccccc1NS(=O)(=O)c1cccc(C(=O)NCC(c2ccco2)N2CCCCC2)c1 (centres unmarked),-0.284
2,Cc1cc(NC(=O)Nc2cc(C)nn2-c2ccccc2)n(-c2ccccc2)n1,2.23
3,CCC(C)(C)n1nnnc1C(c1cc2cccc(C)c2[nH]c1=O)N1CCN(C(=O)c2ccco2)CC1 (centres unmarked),2.94
4,N#CC1=C(N)C2=CCCC[C@H]2[C@H](c2cccc(F)c2)C1(C#N)C#N,13
5,COc1ccc(NC(=O)CCNC(=O)Cn2cnc3ccccc3c2=O)c(OC)c1,4.76
6,CC(C)C[C@H](NC(=O)C1CCN(S(=O)(=O)c2ccccc2)CC1)C(=O)NCc1cccnc1,1.76
7,CC1CCc2c(C(=O)NCc3ccccn3)csc2C1 (centres unmarked),7.33
8,C=CCn1c(=NC(=O)c2cc(Cl)sc2Cl)sc2cc(S(N)(=O)=O)ccc21,5.06
9,COc1ccc(C2(C(=O)Nc3cc(C)on3)CCOCC2)cc1,-6.57
10,Cc1ccc2c(c1)c1c3n2CCN(CC#N)C3CCC1 (centres unmarked),5.7
11,Cc1ccccc1CSc1nsc(N)n1,16
12,Cc1cc(S(=O)(=O)N2CCCC(N(C)CCc3ccccn3)C2)c(C)cc1Cl (centres unmarked),-43.7
13,COc1ccc(CCNC(=O)CCCCCN2C(=O)c3ccccc3C2=O)cc1,6.01
14,COC(=O)c1cc(NC(=O)c2c(-c3ccccc3)noc2C)ccc1N1CCOCC1,4.11
15,COc1ccc(CCNC(=O)/C(C#N)=C/c2ccc(OCC(=O)NCC3CCCO3)cc2)cc1OC (centres unmarked),18.5
16,O=C(CCN1C(=O)/C(=C\c2ccccc2)SC1=S)Nc1ccc(C(=O)O)cc1,10.7
17,Cc1ccc(NC(=O)N2CCCC2C(=O)Nc2nnc(C(C)C)s2)cc1 (centres unmarked),16
18,COc1ccc(S(=O)(=O)N2CCOCC2)cc1NC(=O)CN1CCN(C)CC1,11.4
19,COCCn1nnnc1CN1CCC(Cc2ccccc2)CC1.Cl,7.55
20,CCc1ccc(C(=O)CN2C(=O)NC(C)(CCc3ccccc3)C2=O)cc1 (centres unmarked),2.74
21,C/C(=N/NC(=O)C1COc2ccccc2O1)c1ccc(Br)s1 (centres unmarked),13.8
22,CCOC(=O)c1cncc(C#CCOC(=O)Nc2ccc(OC(F)(F)F)cc2)c1,13.6

row,Structure (SMILES),"hERG current change (%, negative = inhibition) at 1uM [%]"
1,CCN1CCCC(OC(=O)c2cc(-c3ccccc3Cl)nc3ccccc23)C1.Cl (centres unmarked),-7.48
2,Cn1c(NC(=O)c2ccc(Br)o2)cc(=O)n(C)c1=O,6.16
3,CCC(C)NC(=O)C1(O)c2cc(Br)ccc2NC(=O)N1c1cccc(OC)c1 (centres unmarked),13
4,O=C(NNC(=O)c1cccs1)c1ccc(Cl)nc1,2.47
5,O=C(COC(=O)/C=C/c1ccc2c(c1)OCO2)NC1CC1,6.45
6,COC(=O)C(C(=O)OC)c1ncc(C(F)(F)F)cc1Cl,20.9
7,O=C(Nc1nnc(-c2cc(Cl)ccc2Cl)o1)C1=COCCO1,10.3
8,CC(C)Cc1nn2c(=O)cc(COc3ccc(NC(=O)c4ccco4)cc3)nc2s1,4.41
9,Cc1csc(NC(=O)c2nc(-c3ccccc3)n(-c3ccccc3)n2)n1,-45.2
10,CCOC(=O)C(=Cc1ccc(Br)cc1)C(=O)OCC,11.1
11,CCC(=NCCN1CCNCC1)C1=C(O)CC(C)(C)CC1=O,10.2
12,CCc1ccc(NC(=O)CCS(=O)(=O)c2cccc3nsnc23)cc1,-2.36
13,CCN(CC(=O)Nc1ccc(NC(C)=O)cc1)C(=O)Cc1ccc(S(=O)(=O)N2CCOCC2)s1,12.9
14,O=C(COc1ccc(Cl)cc1Cl)OCn1nnc2ccccc2c1=O,20
15,CCC(=O)Nc1ccc(NC(=S)NC(=O)/C=C/c2ccccc2)cc1,11.1
16,COc1ccc(-c2cc(C(=O)N3CCc4ccccc4C3)no2)cc1OC,8.83
17,Cc1onc(C(=O)NN)c1-c1csc(COc2ccc(Cl)cc2)n1,3.39
18,COc1cccc(OCCn2cc(C=O)c3ccccc32)c1,20.4
19,CCOc1ccc(CCNC(=O)C(CCC(N)=O)NC(=O)OCc2ccccc2)cc1OCC (centres unmarked),5.68
20,CCOC(CNC(=O)c1ccc2c(c1)ncn2-c1cccc(F)c1)OCC,0.423
21,C=CCn1cc(C(=O)NCCN(CC)CC)c(=O)c2cc(S(=O)(=O)N3CCCCCC3)ccc21,-9.01
22,COC(=O)CSc1nc2ccccc2c(=O)n1Cc1ccccc1,1.98

row,Structure (SMILES),"hERG current change (%, negative = inhibition) at 1uM [%]"
1,COc1ccc(NC(=O)CN(C)C(=O)c2c(C)nn(Cc3ccccc3)c2C)cc1,8.13
2,CC1Cc2cc(S(=O)(=O)NCCC(=O)N(C)Cc3ccccc3)ccc2N1C(=O)C1CC1 (centres unmarked),2.31
3,O=C(CCC(=O)N1CCOc2ccccc21)Nc1ccccc1Br,-10
4,O=C(COc1ccccc1Br)NCc1ccco1,-7.49
5,Cc1ccc(OCC(=O)c2cc(C)n(Cc3ccco3)c2C)c([N+](=O)[O-])n1,-4.25
6,CCCn1c(SCC(=O)OCC)nc(C(F)(F)F)cc1=O,1.23
7,Cc1onc(C(=O)NN)c1C(=O)N1CCN(C(c2ccccc2)c2ccccc2)CC1,15.5
8,CC(=O)c1ccc2c(c1)OCCOCCOc1ccccc1OCCOCCO2,-82.5
9,Cc1csc(SCc2c(C(=O)O)oc3ccccc23)n1,15.5
10,OC(COCc1cccs1)CN1CCN(c2ccccc2Cl)CC1 (centres unmarked),-50.8
11,CCOC(=O)c1c(NC(=O)COC(=O)c2ccccn2)sc2c1CCC2,6.38
12,Nc1cc2c(cc1[N+](=O)[O-])OCO2,11.3
13,CC[C@]1(c2ccccc2OC)ON(c2ccccc2C(F)(F)F)C1=O,13.8
14,Cc1sc2ncnc(OCC(=O)N3CC(=O)Nc4ccccc43)c2c1C,-0.969
15,CCOc1ccc(N/C(=C(/C(Cl)=C(Cl)Cl)[N+](=O)[O-])n2cncn2)cc1,5.63
16,Cn1c(CNC(=O)C(Cc2ccccc2)NC(=O)c2ccccc2F)cc(=O)n(C)c1=O (centres unmarked),20.5
17,CC1=CC2=NC(=O)/C(=C\c3ccc(-c4cccc(Cl)c4)o3)C(=N)N2O1,14.5
18,Cc1cc(NC(=S)NC(=O)c2ccccc2)ccc1-c1cc2ccccc2oc1=O,13
19,O=C(O)CCNC(=O)OCC1c2ccccc2-c2ccccc21,1.64
20,COc1ccc(CNC(=O)CCNS(=O)(=O)c2ccc(Cl)cc2)cc1,-5.44
21,O=C1C(Cc2ccc(F)cc2)SC(=Nc2ccccc2)N1c1ccccc1 (centres unmarked),7.84
22,Oc1ccccc1C1=Nc2nc3ccccc3n2C(c2ccccc2)C1 (centres unmarked),9.3

row,Structure (SMILES),"hERG current change (%, negative = inhibition) at 1uM [%]"
1,O=C(/C=C\NCC(=O)c1ccccc1)c1ccc2ccccc2c1,13.1
2,O=C(COC(=O)c1ccc(O)cc1)Nc1ncc(Cl)cc1Cl,4.84
3,Cc1ccc(NC(=O)c2ccc3nccnc3c2)c(C)c1,7.98
4,O=C(CSc1nnc(NC(=O)c2ccc(F)cc2F)s1)NC1CCCC1,18.7
5,CN(CC(=O)Nc1ccc(F)cc1)C(=O)CCc1nc2sc3c(c2c(=O)[nH]1)CCCC3,-5.63
6,C#Cc1ccc([C@H]2C=C(C(=O)Nc3ccccc3)O[C@@H](OCc3ccc(CO)cc3)C2)cc1,7.58
7,Cc1cc(C(=O)COC(=O)C2=NNC(=O)CC2)c(C)n1-c1ccccc1,-10.7
8,Cc1cc(C)cc(NC(=O)c2cccc3c2C(=O)N(C2CCCCC2)C3)c1,8.27
9,CC(C)C1CCN(C(=O)C2CCC(=O)N(CCc3ccc(Cl)cc3)C2)CC1 (centres unmarked),-12.6
10,Cn1c(=O)c2c(SCC(=O)N3CCCc4ccccc43)nc(C3CC3)nc2n(C)c1=O,-6.07
11,CCOC(=O)C1Nc2c(cc(C(F)(F)F)cc2[N+](=O)[O-])C2c3ccccc3CC12 (centres unmarked),4.87
12,Cc1ccc(NC(=S)NCC2CCCO2)cc1 (centres unmarked),-29.3
13,CC(=O)Nc1cccc(NC(=O)CSc2n[nH]c(-c3ccccc3)n2)c1,11.8
14,CS(=O)(=O)N1CCC(C(=O)Nc2cc(C(F)(F)F)ccc2Cl)CC1,10.9
15,COc1ccc(CN(C)C(=O)Cc2c[nH]c3ccccc23)c(OC)c1OC,9.45
16,Cc1ccc(-n2c(SCC(=O)NCc3ccco3)nc3c(sc4ccccc43)c2=O)cc1,13.2
17,Cc1cc(CN(C)C(=O)CC2C(=O)NCCN2Cc2ccc(F)c(F)c2)on1 (centres unmarked),9.57
18,CN(CC1CCOCC1)C(=O)CC1C(=O)NCCN1Cc1ccccc1F (centres unmarked),13.3
19,O=C(CC(CC(=O)c1ccc(Br)cc1)c1cccnc1)c1ccc(Br)cc1,16.1
20,COc1ccc(CCC2CCNCC2)cc1.Cl,12.7
